The other results are listed elsewhere or left out.
B1: PhoQ; a variant is named by its letters at X, in order, P23837 (parent)
chain: MKKLLRLFFPLSLRVRFLLATAAVVLVLSLAYGMVALIGYSVSFDKTTFRLLRGESNLFYTLAKWENNKLHVELPENIDKQSPTMTLIYDENGQLLWAQRDVPWLMKMIQPDWLKSNGFHEIEADVNDTSLLLSGDHSIQQQLQEVREDDDDAEMTHSVAVNVYPATSRMPKLTIVVVDTIPVELKSSYMVWSWFIYVLSANLLLVIPLLWVAAWWSLRPIEALAKEVRELEEHNRELLNPATTRELTSLVRNLNRLLKSERERYDKYRTTLTDLTHSLKTPLXXLQXXLRSLRSEKMSVSDAEPVMLEQISRISQQIGYYLHRASMRGGTLLSRELHPVAPLLDNLTSALNKVYQRKGVNISLDISPEISFVGEQNDFVEVMGNVLDNACKYCLEFVEISARQTDEHLYIVVEDDGPGIPLSKREVIFDRGQRVDTLRPGQGVGLAVAREITEQYEGKIVAGESMLGGARMEVIFGRQHSAPKDE

Variants of: B1
Assay: enrichment ratio after two sorts for PhoP signalling (ratio (wild type AVST 3.29)); higher = more functional
Settings: with PhoP (E. coli)

Variant	enrichment ratio
PKII	≤ 0.25
PFLE	≤ 0.25
DQRW	≤ 0.25
YNFA	≤ 0.25
KYFC	≤ 0.25
RFVL	≤ 0.25
FGFV	≤ 0.25
WSTR	≤ 0.25
QDYR	≤ 0.25
EQGP	≤ 0.25
DAPN	≤ 0.25
DIIK	≤ 0.25
HIMW	≤ 0.25
EMVQ	≤ 0.25
YVWW	≤ 0.25
STNS	0.68
RKAI	≤ 0.25
MYLK	0.845
KLFT	≤ 0.25
AVDH	≤ 0.25
NWIQ	≤ 0.25
YKKG	≤ 0.25
SEHR	≤ 0.25
DCDS	≤ 0.25
IQVW	≤ 0.25
PHFM	≤ 0.25

Variant	enrichment ratio
RHSC	≤ 0.25
YIAV	0.757
ATFC	≤ 0.25
HASF	≤ 0.25
FIIH	≤ 0.25
YRFF	≤ 0.25
VGDI	≤ 0.25
YPHY	≤ 0.25
MCKY	≤ 0.25
YSHE	≤ 0.25
LVKW	4.52
GFLF	≤ 0.25
QSYK	≤ 0.25
LCVC	≤ 0.25
YLHH	≤ 0.25
ADPY	≤ 0.25
VTVK	≤ 0.25
VVVY	≤ 0.25
VGSS	≤ 0.25
FNFY	≤ 0.25
SPMW	≤ 0.25
FRCF	≤ 0.25
GEDF	≤ 0.25
KLDL	≤ 0.25
IWIV	≤ 0.25
LKPM	≤ 0.25

Variant	enrichment ratio
SGRI	≤ 0.25
IPAL	≤ 0.25
LHPV	≤ 0.25
HVLM	≤ 0.25
ACAM	30.7
EIIF	≤ 0.25
FDFG	≤ 0.25
LIFM	≤ 0.25
FHVK	≤ 0.25
TMWN	≤ 0.25
WMCF	≤ 0.25
DASD	≤ 0.25
IDES	≤ 0.25
IFEW	≤ 0.25
MNAK	≤ 0.25
FRRE	0.446
RNSS	≤ 0.25
HDDK	≤ 0.25
NQEM	≤ 0.25
EILR	≤ 0.25
NCRV	≤ 0.25
AAMV	1.6
EHNT	≤ 0.25
NYNQ	≤ 0.25
PIVL	≤ 0.25
QPCM	≤ 0.25

Variant	enrichment ratio
MKER	≤ 0.25
GWPD	≤ 0.25
FTYG	≤ 0.25
EIIC	≤ 0.25
ISGW	≤ 0.25
NNMF	≤ 0.25
DCHC	≤ 0.25
DHDM	≤ 0.25
TKQV	4.75
VPWV	≤ 0.25
RMCG	≤ 0.25
ECHN	≤ 0.25
TKSC	5.09
RILP	≤ 0.25
RNYV	≤ 0.25
HGDW	≤ 0.25
RSGA	≤ 0.25
MDIA	≤ 0.25
FEEF	≤ 0.25
SWQK	≤ 0.25
IDTP	≤ 0.25
WSWW	≤ 0.25
NTHL	≤ 0.25
WQGV	≤ 0.25
NNRE	≤ 0.25
SIYT	≤ 0.25

Variant	enrichment ratio
WLPE	≤ 0.25
NRSG	≤ 0.25
YFQW	≤ 0.25
WNRN	≤ 0.25
NVRK	≤ 0.25
HIMC	48.5
PWTT	≤ 0.25
VEHK	≤ 0.25
EDYI	≤ 0.25
HSYS	≤ 0.25
FYIC	≤ 0.25
YEGD	≤ 0.25
TLRH	≤ 0.25
EADV	≤ 0.25
DYRN	≤ 0.25
EVYW	≤ 0.25
FGQN	≤ 0.25
TWVP	≤ 0.25
VMQG	≤ 0.25
NLKD	≤ 0.25
KSIG	≤ 0.25
MAGV	1.97
RFIH	≤ 0.25
LHIT	≤ 0.25
YMAL	≤ 0.25
SQCI	15.6

Variant	enrichment ratio
KTIG	≤ 0.25
RYIA	≤ 0.25
KLHW	≤ 0.25
NYPA	≤ 0.25
RAHE	≤ 0.25
NVKH	≤ 0.25
LTDC	≤ 0.25
PLKE	≤ 0.25
GECN	≤ 0.25
SQMM	3.97
DFGY	≤ 0.25
PIYK	≤ 0.25
TRCT	18.2
TYFM	≤ 0.25
KSRV	≤ 0.25
FYVV	≤ 0.25
PQNA	≤ 0.25
PTNP	≤ 0.25
VECH	24.1
RQTP	≤ 0.25
PRFQ	≤ 0.25
HCLA	≤ 0.25
WRGP	≤ 0.25

— a collection of fitness landscapes (doi:10.1126/science.1257360)
